Screen size: about 200,000 compounds; about 4,500 (2.2%) were called active. Inconclusive means that the source gave no clear call. Such entries were picked first, then a sample of the others. Calls come from the whole dose curve; as a rule, active = well fitted inhibition curve with a large enough effect; inconclusive = small, poorly fitted or top-dose-only effect, or effect the other way; inactive = flat fitted curve, though single readings scatter. A potency beside an inconclusive call is a rough fit, not a confirmed value.
Biological target: Cruzipain (Trypanosoma cruzi) (UniProt P25779)
Assay: qHTS Assay for Promiscuous and Specific Inhibitors of Cruzain (without detergent); note: nearly all actives have a fitted effect of over 40% in size;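 for max response, negative = inhibition: plate controls were enzyme without inhibitor for no effect and buffer without enzyme for full effect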
Settings: purified cruzain, Z-FR-AMC fluorescence, no detergent
How it was run: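 Detergent-free condition (0.00005% Triton X-100) in acetate buffer pH 5.5 with DTT. 1.5 nM enzyme and compound were pre-mixed 15 min, then 2 uM Z-FR-AMC substrate added; reaction progress from fluorescence change between first and third reads (60 s).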
Potency is the fitted concentration of half-maximal effect; tags give direction and shape of the fitted curve.

Sequence of UniProt P25779 (P25779 whole entry, looked up): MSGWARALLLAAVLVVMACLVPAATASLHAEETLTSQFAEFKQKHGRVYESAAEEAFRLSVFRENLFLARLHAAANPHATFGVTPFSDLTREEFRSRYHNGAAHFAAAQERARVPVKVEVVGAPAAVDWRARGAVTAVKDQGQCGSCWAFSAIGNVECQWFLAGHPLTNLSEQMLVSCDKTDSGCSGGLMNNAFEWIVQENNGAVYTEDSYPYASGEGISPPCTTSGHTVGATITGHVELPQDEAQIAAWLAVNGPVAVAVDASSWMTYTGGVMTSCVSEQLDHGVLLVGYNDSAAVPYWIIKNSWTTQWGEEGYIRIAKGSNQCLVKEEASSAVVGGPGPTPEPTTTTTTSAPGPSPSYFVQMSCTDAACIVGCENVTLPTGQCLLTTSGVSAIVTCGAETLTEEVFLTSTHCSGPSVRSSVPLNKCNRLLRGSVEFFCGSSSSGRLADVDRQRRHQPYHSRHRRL

| SMILES | Potency | max response, negative = inhibition |
| --- | --- | --- |
| O=C1OCCN1C(=O)[C@H]1[C@H](c2ccc(Cl)cc2)C(c2cccc(Cl)c2)=NN1c1ccc(Br)cc1 | active: 8.91 µM |  |
| O=C1/C(=C/c2ccc([N+](=O)[O-])cc2)C=C(c2ccccc2)N1c1ccc(O)cc1 | inconclusive: 39.8 µM [inhibitor, single point] |  |
| O=c1nc(-c2ccccc2)n(-c2ccccc2)[nH]1 |  | inactive: -3.2% |
| CCCCNC(=O)c1cc2c(=O)n3cccc(C)c3nc2n(Cc2ccccc2)c1=N | inconclusive: 3.98 µM [activator, partial curve] |  |
| COC(=O)c1cc(OC)c(OC)cc1NC(=O)Nc1ccc(OC)cc1OC | inconclusive: 39.8 µM [activator, single point] |  |
| CCCOc1ccc(/C=C/C(=O)Nc2ccc([N+](=O)[O-])cc2C)cc1 | active: 25.1 µM |  |
| CCN(CC)S(=O)(=O)c1ccc2c(c1)nc(CN(C)C(=O)Nc1cccc(Cl)c1)n2C | inconclusive: 39.8 µM [activator, single point] |  |
| CC(=O)N1CCc2cc(S(=O)(=O)NC(CC(C)C)C(=O)NCCc3ccc(C)cc3)ccc21 (centres undefined) |  | inactive: 5.07% |
| COc1ccc(Cn2c(CCC(=O)Nc3ccc(C)c(C)c3)nc3cccnc32)cc1 | inconclusive: 25.1 µM [activator, single point] |  |
| CCCN(CCC)C(=O)CN1C(=O)CSc2ccc(S(=O)(=O)N3CCC(C)CC3)cc21 |  | inactive: 13% |
| CC1C(=O)Nc2ccc(S(=O)(=O)NCc3ccc(N(C)C)cc3)cc2NC1=O (centres undefined) | inconclusive: 31.6 µM [activator, single point] |  |
| CCOC(=O)N1[C@@H]2C=C(C)[C@@H]2[C@@H]2[C@@H](C)C(=O)N21 | active: 12.6 µM |  |
| CCOc1ccc(CCNC(=O)Cn2c(=O)c3cccn3c3ccc(F)cc32)cc1OCC |  | inactive: 5.24% |
| CC12CC[C@@](C(=O)O)(C(=O)C1=O)C2(C)C |  | inactive: -2.52% |
| Cc1nc2nc(NCc3cccc(Cl)c3)[nH]n2c(=O)c1Cc1ccccc1 |  | inactive: -12.8% |
| CCOc1ccc2nc(N3CCCC(C(=O)NCCCOC)C3)sc2c1 (centres undefined) | inconclusive: 31.6 µM [activator, single point] |  |
| CCN1CCc2nc3sc(C(=O)c4ccccc4)c(N)c3cc2C1 |  | inactive: -8.59% |
| CC(=O)N/C(=C/c1ccc2c(c1)OCO2)C(=O)NCCCO | inconclusive: 39.8 µM [inhibitor, single point] |  |
| Cc1ccc(NC(=O)CSc2nc(-c3ccc(C(C)(C)C)cc3)nc3cc(=O)[nH]n23)cc1C | active: 3.98 µM |  |

Source: PubChem BioAssay AID1476 (National Center for Advancing Translational Sciences (NCATS), 2009)
